Measured values: patent publication US10407503B2, “Fully human antibodies and fragments recognizing human c-Met” (THE REGENTS OF THE UNIVERSITY OF CALIFORNIA, priority 2012, dated 2019)

B1: H2 cys-diabody: human anti-c-Met cys-diabody comprising SEQ ID NO:23; also tested Zr-89 or 64Cu radiolabeled (protein)
chain: [about 100 residues not shown]EGGKWYYGMDVWGRGTLVTVSSGGGGGSSSELTQDPAVSVALGQTVRITCQGDSLRSYYTNWFQQKPGQAPLLVVYAKNKRPSGIPDRFSGSGSGDTASLTITGAQAEDEADYYCNSRDSSGNYLFAAGTKLTVLGAAAEQKLISEEDLNGAAHHHHHHC
modifications: optionally Zr-89 or 64Cu radiolabel; H2 cys-diabody sequence
notes: also tested Zr-89 or 64Cu radiolabeled
B2: A12 ScFv antibody: human anti-c-Met ScFv comprising SEQ ID NO:25; tested as phage-displayed clone (protein)
scFv: [about 100 residues not shown]SSSSWYRSYYFDYWGQGTLVTVSSGGGGGSGGGGSGGGGSQSALTQDPAVSVALGQTVRITCRGDSLRNYYASWYQQKPGQAPVLVIYGKNNRPSGIPDRFSGSFSGNTASLTITGAQAEDEADYYCNSRDSSANQMFGGGTKVTVLG
modifications: phage-displayed; synthetic A12 ScFv sequence
B3: H2 ScFv antibody: human anti-c-Met ScFv comprising SEQ ID NO:31; tested as phage-displayed clone (protein)
scFv: [about 100 residues not shown]EGGKWYYGMDVWGRGTLVTVSSGGGGGSGGGGSGGGGSSSELTQDPAVSVALGQTVRITCQGDSLRSYYTNWFQQKPGQAPLLVVYAKNKRPSGIPDRFSGSGSGDTASLTITGAQAEDEADYYCNSRDSSGNYLFAAGTKLTVLG
modifications: phage-displayed; synthetic H2 ScFv sequence

Assays:
[1] = molecular target: T1, human MET protein (Homo sapiens, UniProt P08581); assay: Anti-MET ELISA, human MET-hIgG Fc captured by coated cys-diabodies; assay type: binding; conditions: coated cys-diabody captures human MET-hFc
T1 construct: purchased Sino Biological Inc
T1 sequence (P08581 with tags, fused parts or gaps limits assumed): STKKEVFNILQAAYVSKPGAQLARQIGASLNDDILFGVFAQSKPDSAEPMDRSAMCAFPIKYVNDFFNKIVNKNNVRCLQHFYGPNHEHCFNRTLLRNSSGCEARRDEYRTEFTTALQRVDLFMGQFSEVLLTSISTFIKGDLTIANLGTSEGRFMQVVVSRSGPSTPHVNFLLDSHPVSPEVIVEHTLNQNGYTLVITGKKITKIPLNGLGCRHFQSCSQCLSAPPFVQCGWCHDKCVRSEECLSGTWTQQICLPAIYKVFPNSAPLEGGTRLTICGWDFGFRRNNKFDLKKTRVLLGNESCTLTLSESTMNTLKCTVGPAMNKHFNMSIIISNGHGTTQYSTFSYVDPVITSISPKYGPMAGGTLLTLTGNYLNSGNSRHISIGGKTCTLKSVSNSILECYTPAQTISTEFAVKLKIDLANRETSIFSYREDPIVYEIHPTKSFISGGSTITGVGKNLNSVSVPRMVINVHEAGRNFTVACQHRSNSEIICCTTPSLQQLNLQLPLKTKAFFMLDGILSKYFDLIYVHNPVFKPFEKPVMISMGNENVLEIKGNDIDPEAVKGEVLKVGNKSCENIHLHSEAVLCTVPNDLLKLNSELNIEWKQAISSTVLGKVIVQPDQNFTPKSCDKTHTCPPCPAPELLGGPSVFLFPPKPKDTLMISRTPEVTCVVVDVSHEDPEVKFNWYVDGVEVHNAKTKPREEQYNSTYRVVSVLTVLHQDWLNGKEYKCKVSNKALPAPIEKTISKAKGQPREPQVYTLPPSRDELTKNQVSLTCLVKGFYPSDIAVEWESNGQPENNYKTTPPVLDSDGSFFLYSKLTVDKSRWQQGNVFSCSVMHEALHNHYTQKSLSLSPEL
T1 sequence (P08581 25-307 limits assumed): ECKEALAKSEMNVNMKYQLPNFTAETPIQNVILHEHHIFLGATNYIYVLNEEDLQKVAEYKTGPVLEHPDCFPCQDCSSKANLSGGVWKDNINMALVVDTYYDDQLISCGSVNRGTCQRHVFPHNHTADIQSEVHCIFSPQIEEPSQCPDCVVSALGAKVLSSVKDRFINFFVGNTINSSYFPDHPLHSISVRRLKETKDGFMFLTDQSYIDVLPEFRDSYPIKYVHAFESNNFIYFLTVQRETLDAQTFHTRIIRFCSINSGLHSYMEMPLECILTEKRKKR
Description: (§1) Three rounds of selections on human MET protein were performed which were successfully reformatted and purified 3 cys-diabodies. C2, H2 and H5 cys-diabodies were tested for cross-reactivity to mouse MET protein. Different cys-diabodies were coated to 96-well plate (milk or anti-EpCAM cys-diabody was used as negative control). Either mouse or human MET protein was applied to the coated cys-diabodies. Then the MET-hFc proteins were detected by anti-human Fc antibody.
(§2) 1 μg of purified anti-MET cys-diabodies in […], PBS were used to coat each well at 4 degree overnight. Anti-EpCAM cys-diabody or 2% milk-PBS were used for negative controls. The overnight coated plate was then washed with PBS and blocked with 2% milk-PBS at 37 degree for 2 hours. […] The captured human or mouse MET-hIgG Fc were detected with alkaline phosphatase conjugated goat anti-human IgG.
(§3) C2, H2 and H5 cys-diabodies were used to coat 96-well ELISA plate to capture human or mouse MET-hIgG Fc fusion protein. The human IgG Fc on the fusion protein was detected with alkaline phosphatase conjugated goat anti-human IgG. […]
(§4) Three rounds of selections on human MET protein were performed, and three cys-diabodies were reformatted and purified (the C2, H2 and H5 cys-diabodies). […] Then the MET-hFc proteins were detected by anti-human Fc antibody.

[2] = molecular target: T2, mouse MET protein (Mus musculus, UniProt P16056); assay: Anti-MET ELISA, mouse MET-hIgG Fc captured by coated cys-diabodies (cross reactivity); assay type: binding; conditions: coated cys-diabody captures mouse MET-hFc
T2 construct: purchased Sino Biological Inc
T2 sequence (P16056 with tags, fused parts or gaps limits assumed): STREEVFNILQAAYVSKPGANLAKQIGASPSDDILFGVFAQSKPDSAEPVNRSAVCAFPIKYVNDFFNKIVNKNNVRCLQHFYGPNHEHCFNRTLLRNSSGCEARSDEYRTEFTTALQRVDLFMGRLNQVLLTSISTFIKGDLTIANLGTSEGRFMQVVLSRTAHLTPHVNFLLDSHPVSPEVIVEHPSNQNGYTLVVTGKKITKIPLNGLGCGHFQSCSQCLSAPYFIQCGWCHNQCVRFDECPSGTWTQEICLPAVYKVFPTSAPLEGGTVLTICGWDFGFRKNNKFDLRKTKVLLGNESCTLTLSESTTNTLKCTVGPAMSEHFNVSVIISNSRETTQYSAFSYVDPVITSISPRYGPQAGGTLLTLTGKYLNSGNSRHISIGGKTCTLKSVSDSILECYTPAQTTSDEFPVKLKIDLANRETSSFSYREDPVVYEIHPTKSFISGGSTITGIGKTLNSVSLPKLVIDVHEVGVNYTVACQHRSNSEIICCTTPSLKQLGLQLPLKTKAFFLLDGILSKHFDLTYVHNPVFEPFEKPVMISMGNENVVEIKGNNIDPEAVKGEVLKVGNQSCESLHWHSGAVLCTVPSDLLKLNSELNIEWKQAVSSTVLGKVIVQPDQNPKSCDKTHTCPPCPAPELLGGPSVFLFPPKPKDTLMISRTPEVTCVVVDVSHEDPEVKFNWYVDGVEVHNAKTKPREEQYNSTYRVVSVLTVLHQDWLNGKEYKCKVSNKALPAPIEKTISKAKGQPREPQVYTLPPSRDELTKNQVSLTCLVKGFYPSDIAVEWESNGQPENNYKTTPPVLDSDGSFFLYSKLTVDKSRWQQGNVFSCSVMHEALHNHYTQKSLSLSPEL
T2 sequence (P16056 25-306 limits assumed): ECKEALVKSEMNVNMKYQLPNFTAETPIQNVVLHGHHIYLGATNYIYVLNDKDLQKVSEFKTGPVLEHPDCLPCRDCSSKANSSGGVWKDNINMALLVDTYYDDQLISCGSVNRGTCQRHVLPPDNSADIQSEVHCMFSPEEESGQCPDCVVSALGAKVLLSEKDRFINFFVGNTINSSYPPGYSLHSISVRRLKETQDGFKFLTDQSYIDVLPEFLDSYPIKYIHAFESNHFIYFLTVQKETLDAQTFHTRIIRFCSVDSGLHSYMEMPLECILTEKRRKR
Description: as §1, §2, §3, §4

[3] = tested on: Hcc827-GR6 cells; assay: MTS cell growth assay, gefitinib resistant Hcc827-GR6 cells; assay type: cell-based; conditions: 3 days, with or without 1 μM gefitinib, MET amplified
Description: These diabodies also show therapeutic effects on resistant cells with MET amplification. […] The diabodies were also applied to the resistant cell line GR6 with or without 1 μM gefitinib.
Cell growth and inhibition were evaluated by MTS assay. The MTS assay was based on the ability of live cells to convert 3-(4,5-dimethylthiazol-2-yl)-5-(3-carboxymethoxyphenyl)-2-(4-sulfophenyl)-2H-tetrazolium (MTS) to formazan. The quantity of formazan product was measured by 500 nm absorbance, which is proportional to the number of living cells in culture. The assay was performed with the CellTiter96 AQueous Assay Kit from Promega (Cat# G5421), according to the recommended protocol. 2×10^4 cells were seeded in each well of the 96-well plates and treated with different combination of antibodies and drugs for 3 days before the MTS assay. Each combination of cell line and drug and antibody treatment was set up in at least 4 replicate wells. And the results were normalized to the cells treated with media only.
Different cell lines were treated with C2, H2 or H5 cys-diabodies at different concentrations with or without 1 micromolar of gefitinib for 3 days, and then the cell growth was evaluated with MTS assay. […] All three cys-diabodies show no effects on the parental Hcc827 cells without gefitinib.
These diabodies also show therapeutic effects on resistant cells with MET amplification. […]

[4] = tested on: Hcc827 parental tumors; assay: Ex-vivo biodistribution after PET, Hcc827 parental tumors; assay type: in vivo, SCID mice; conditions: Zr-89 maleimide-DFO labeled, tail vein, ex vivo after final imaging time point (20 hours), n=4
Description: (§5) Hcc827 parental cells and the gefitinib resistant Hcc827-GR6 cells were obtained from Jeffrey A. Engelman's lab. The parental Hcc827 cells were maintained with RPMI 1640 media supplemented with 10% FBS (fetal bovine serum, Invitrogen), 1% sodium pyruvate (Invitrogen) and 1% penicillin-streptomycin (Invitrogen). The Hcc827-GR6 cells were maintained with RPMI1640 media supplemented with 10% FBS, 1% sodium pyruvate, 1% penicillin-streptomycin and 100 nM gefitinib (Santa Cruz biotechnology, Cat#: sc-202166). MKN45 cells (Japanese Collection of Research Bioresources cell bank) were maintained in RPMI 1640 media supplemented with 10% FBS. […]
(§6) Antibody fragments were first dialyzed into metal free PBS (0.5-2 mg/mL). […] The labeling efficiency and radio-chemical purity were determined by ITLC (instant thin-layer chromatography). […] The radioactivity of the combined and supernatant and cell pellet was measured by a Wizard 3′ 1480 Automatic Gamma Counter (Perkin-Elmer, Covina, Calif.). The immunoreactivity was calculated by dividing the radioactivity in the cell pellet with the total radioactivity of supernatant and cell pellet. […]
(§7) Tumor bearing mice were injected via tail vein with approximately 18-25 μg of Zr-89 labeled cys-diabody in PBS. […] Micro-PET images were reconstructed using a filtered backprojection algorithm, and analyzed with AMIDE software. […]

[5] = tested on: Hcc827-GR6 tumors; assay: Ex-vivo biodistribution after PET, Hcc827-GR6 tumors; assay type: in vivo, SCID mice; conditions: Zr-89 maleimide-DFO labeled, tail vein, ex vivo after final imaging time point (20 hours), n=4
Description: as §5, §6, §7

[6] = tested on: parental and resistant tumor; assay: PET imaging with 64Cu radiolabeled maleimide-DOTA H2 cys-diabody; assay type: in vivo; conditions: maleimide-DOTA conjugated, initial experiments
Description: These diabodies were also tested on other resistant cells without MET amplification (H1975 and H1650), and they show no effects on those cells. The H2 cys-diabody was site specifically conjugated with maleimide-DOTA and radiolabeled with 64Cu for PET imaging.
These diabodies were also applied to other resistant cells without MET amplification (H1975 and H1650). The diabodies had no effect on such cells. (Data not shown). The H2 cys-diabody was site specifically conjugated with maleimide-DOTA and radiolabeled with ^64Cu for PET imaging.

[7] = molecular target: T3, cell surface MET (Homo sapiens, UniProt P08581); assay: Phage flow cytometry for binding to c-MET expressing cells; conditions: phage antibodies; Hcc827 or Hcc827-GR6 cells; FITC anti-M13 detection
T3 construct: endogenous in cells; host or cells: Hcc827 or Hcc827-GR6
T3 sequence (P08581 25-1390): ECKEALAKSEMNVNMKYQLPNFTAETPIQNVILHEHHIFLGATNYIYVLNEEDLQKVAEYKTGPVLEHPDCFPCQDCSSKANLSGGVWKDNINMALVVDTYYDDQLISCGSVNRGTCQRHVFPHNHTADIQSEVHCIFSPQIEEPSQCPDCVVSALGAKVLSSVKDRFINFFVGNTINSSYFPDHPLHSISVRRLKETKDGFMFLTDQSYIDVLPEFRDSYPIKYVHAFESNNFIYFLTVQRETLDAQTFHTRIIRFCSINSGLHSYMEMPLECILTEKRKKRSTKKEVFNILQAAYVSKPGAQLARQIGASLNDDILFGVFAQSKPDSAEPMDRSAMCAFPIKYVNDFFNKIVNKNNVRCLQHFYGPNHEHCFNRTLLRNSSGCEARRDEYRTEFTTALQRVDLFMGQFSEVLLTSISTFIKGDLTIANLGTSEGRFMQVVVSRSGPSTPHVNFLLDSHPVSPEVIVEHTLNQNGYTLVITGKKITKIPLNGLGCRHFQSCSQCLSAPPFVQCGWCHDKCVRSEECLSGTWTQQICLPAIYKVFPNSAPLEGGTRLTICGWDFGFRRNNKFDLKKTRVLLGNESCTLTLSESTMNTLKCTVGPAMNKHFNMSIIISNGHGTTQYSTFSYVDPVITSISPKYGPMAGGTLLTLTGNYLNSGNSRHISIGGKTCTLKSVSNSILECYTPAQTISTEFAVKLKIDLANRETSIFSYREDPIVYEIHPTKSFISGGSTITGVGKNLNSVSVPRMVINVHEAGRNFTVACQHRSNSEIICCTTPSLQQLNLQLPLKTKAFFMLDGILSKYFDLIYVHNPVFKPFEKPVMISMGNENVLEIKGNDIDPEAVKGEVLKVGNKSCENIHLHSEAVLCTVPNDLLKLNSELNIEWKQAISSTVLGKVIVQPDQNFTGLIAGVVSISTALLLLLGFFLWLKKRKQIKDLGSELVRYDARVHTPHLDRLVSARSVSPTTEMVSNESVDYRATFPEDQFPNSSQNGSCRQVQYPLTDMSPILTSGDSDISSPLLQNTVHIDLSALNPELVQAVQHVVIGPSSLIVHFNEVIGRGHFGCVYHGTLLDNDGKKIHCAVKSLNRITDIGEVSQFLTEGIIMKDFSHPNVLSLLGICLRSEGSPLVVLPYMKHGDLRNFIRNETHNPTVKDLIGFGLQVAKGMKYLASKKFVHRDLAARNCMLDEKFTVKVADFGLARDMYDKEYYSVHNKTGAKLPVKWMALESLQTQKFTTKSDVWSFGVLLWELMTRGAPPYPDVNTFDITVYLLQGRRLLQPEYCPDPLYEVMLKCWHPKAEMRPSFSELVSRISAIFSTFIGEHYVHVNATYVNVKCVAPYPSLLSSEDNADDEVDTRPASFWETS
Description: For phage antibodies, flow cytometry was used to confirm their binding to c-MET expressing cells. Bacteria culture containing phage was concentrated 30 times into PBS according to published method (Antibody Engineering Methods and Protocols, Benny K. C. Lo). 2˜5×105 c-MET positive Hcc827 or Hcc827-GR6 cells (Engelman et. al, Science, 2007) were incubated with 100 ul concentrated phage and 30 ul 4% milk-PBS on ice for 1 hour. Cells were then washed using flow buffer (PBS, 1% FBS, 2 mM EDTA), and the binding phage antibodies were detected by FITC conjugated anti-M13 monoclonal antibody (Santa Cruz Biotechnology, Cat# sc-53005 Fitc).
93 clones were randomly picked after 3 rounds of panning. The phage-containing supernatant was used for phage ELISA. Top 64 clones with highest A405 signal were sequenced, among which 19 distinctive clones with different sequences were identified. These distinctive clones were then tested for binding to cell surface MET by phage flow experiments. 8 of these clones show good binding to cell surface MET and were selected for the subsequent purification and characterizations.

Row | Molecule | binding to human MET protein [1] | cross reactivity to mouse MET protein [2] | inhibition of growth of resistant Hcc827-GR6 cells [3] | inhibition of growth of resistant Hcc827-GR6 cells ([3]; listed as H2 diabody) | tumor uptake level [4] | tumor uptake level [5] | tumor targeting in PET imaging [6] | binding to cell surface MET [7]
1 | B1 | can bind to both human and mouse MET protein | cross react with mouse MET protein; also recorded: can bind to both human and mouse MET protein | inhibition effect | best inhibition effect; also recorded: greatest inhibition effect | 1.1±0.1 % ID/gram | 1.8±0.2 % ID/gram | targeting to both parental and resistant tumor | 
2 | B2 |  |  |  |  |  |  |  | can bind to cell surface MET
3 | B3 |  |  |  |  |  |  |  | can bind to cell surface MET

Entries after “also recorded” stand apart in the source; their conditions may differ.
